62 compounds from PubChem BioAssay AID1159614 (National Center for Advancing Translational Sciences (NCATS), 2016) can be followed below.

Among all 45,000 compounds or so, about 65 (0.1%) were called active. Calls come from the whole dose curve; as a rule, active = well fitted activation curve with a large enough effect; inconclusive = small, poorly fitted or top-dose-only effect; inactive = no such curve, though single readings can be large or run the other way. The list shows a part of the results.

The assay addresses Galactocerebrosidase (Homo sapiens) (UniProt P54803). Description: A Novel Cell-Based Assay to Identify Small Molecules for B -Galactocerebrosidase. Note: 0% is about no effect; nearly all actives have a fitted effect of over 65% in size. To be noted: 145M-Twi-hGALC-G270D cells, HMU-beta-Gal fluorescence, 48 h; series mostly up to 57.5 µM; activation: at the top concentration. Put shortly: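 qHTS, 1536-well; 145M-Twi-hGALC-G270D cells (WT line also made) in DMEM/F12 + 10% FBS; compound incubation on live cells; HMU-β-gal 0.1 mM final, pH 5.2, NaTC; carbonate stop; fluorescence increase = enhanced residual activity.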
Chain of UniProt P54803 (P54803 whole entry, looked up): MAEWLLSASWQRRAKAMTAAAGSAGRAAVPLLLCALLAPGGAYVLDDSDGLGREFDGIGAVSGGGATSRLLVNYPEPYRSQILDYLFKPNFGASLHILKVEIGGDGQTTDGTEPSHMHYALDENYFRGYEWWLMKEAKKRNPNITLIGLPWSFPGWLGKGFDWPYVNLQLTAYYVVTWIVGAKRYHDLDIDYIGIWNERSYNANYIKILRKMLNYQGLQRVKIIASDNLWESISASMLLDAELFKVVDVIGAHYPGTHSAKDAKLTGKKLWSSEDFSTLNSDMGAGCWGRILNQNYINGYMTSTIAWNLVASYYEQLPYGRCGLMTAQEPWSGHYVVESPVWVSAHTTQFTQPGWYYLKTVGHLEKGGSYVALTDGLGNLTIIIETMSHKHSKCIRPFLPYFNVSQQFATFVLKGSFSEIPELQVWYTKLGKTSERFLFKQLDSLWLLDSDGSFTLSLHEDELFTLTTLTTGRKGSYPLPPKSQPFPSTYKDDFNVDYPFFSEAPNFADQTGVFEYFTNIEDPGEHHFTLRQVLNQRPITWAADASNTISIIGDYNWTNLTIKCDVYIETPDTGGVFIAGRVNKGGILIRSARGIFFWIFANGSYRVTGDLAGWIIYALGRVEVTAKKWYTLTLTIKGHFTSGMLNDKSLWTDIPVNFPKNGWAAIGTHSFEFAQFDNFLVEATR
On to `CN(Cc1ccccc1)C(=O)Cn1ncc2c3ccccc3n(Cc3cccc(Cl)c3)c2c1=O`, for which the “activation” value is inactive: -8.25%.

In the case of `COc1ccc(NC(=O)CSC2=Nc3ccccc3C3=NC(Cc4ccccc4)C(=O)N23)cc1Cl` (configuration not stated), the “activation” value was inactive: -9.13%.

Take `COc1cc(CCC(=O)NCc2ccc3c(c2)CCN3C(=O)c2cccc(C)c2)cc(OC)c1OC`: the “activation” value is inactive: -4.58%.

As to `COc1cc(C2c3c(oc4ccccc4c3=O)C(=O)N2Cc2ccccc2Cl)ccc1O` (configuration not stated), the “activation” value was inactive: -22.6%.

Consider `CCc1cnc2c(c1SCC(=O)NCc1ccccc1)c(=O)n(C)c(=O)n2C`, for which the “activation” value was inactive: -16.1%.

For `Cc1cc(C)c2oc(-c3cccc(NC(=O)c4cc5ccccc5o4)c3)nc2c1`, the “activation” value was inactive: -7.94%.

With `CC(C)(C)c1ccc(C(=O)N2CC(=O)Nc3ccc(F)cc3C2c2ccc(F)cc2)cc1` (configuration not stated), the “activation” value was inactive: -11.4%.

Consider `COc1ccc(C2=NN(CC(=O)NCc3ccccc3Cl)C(=O)CC2)cc1`, for which the “activation” value is inactive: -7.51%.

As to `CCOc1ccc(C(=O)Nc2ccc(-c3nc4cc(C(C)C)ccc4o3)cc2)cc1Cl`, the “activation” value was inactive: -11.5%.

With `CCc1cccc(NC(=O)c2nc(-c3ccncc3)no2)c1`, the “activation” value is inactive: 2.73%.

`Cc1ccc(NCc2cccn2-c2nnc(N3CCC(C(=O)NCCc4ccccc4)CC3)s2)cc1`: the “activation” value is inactive: -22.3%.

For `COc1cccc(CNC(=O)N2CCC(CN3CCC(C)CC3)CC2)c1`, the “activation” value is inactive: -7.07%.

Regarding `Fc1cccc(NCc2cccn2-c2nnc(N3CCOCC3)s2)c1`, the “activation” value was inactive: -21.4%.

Regarding `Cc1ccc(CCNC(=O)c2c(C)oc3ncnc(N4CCOCC4)c23)cc1`, the “activation” value is inactive: -10.7%.

`CCOc1ccccc1NC(=O)CN(CCc1ccccc1)S(=O)(=O)c1ccc(C)cc1`: the “activation” value was inactive: -4.07%.

For the compound `Cn1nnc2c(N3CCCCC3)ncnc21`, the “activation” value was inactive: -14.4%.

Consider `COCCc1nn2c(=O)cc(COC(=O)c3cccs3)nc2s1`, for which the “activation” value was inactive: -20.5%.

Regarding `Clc1ccc(CNc2nc3ccccc3c3nc(-c4cccnc4)nn23)cc1`, the “activation” value is inactive: 13.9%.

On to `CCn1ccc2cc(S(=O)(=O)N3CCC(C(=O)NCCc4ccc(SC)cc4)CC3)ccc21`, for which the “activation” value is inactive: -6.54%.

`CCc1cccc(C)c1NC(=O)CN1C(=O)c2c(c3ccccc3n2C)C1c1ccc(OC)cc1` (configuration not stated): the “activation” value is inactive: -5.23%.

On to `COc1ccc(NC(=O)CSc2nc(-c3ccc(OC)cc3)[nH]c2-c2ccc(F)cc2)cc1`, for which the “activation” value is inactive: 2.17%.

As to `COc1ccccc1NC(=O)c1ccccc1NC(=O)c1ccccc1`, the “activation” value is inactive: -7.06%.

Turning to `CN(C)c1ccc(CNC(=O)CCC(=O)N2Cc3ccccc3Oc3ncccc32)cc1`, the “activation” value is inactive: 6.17%.

As to `COc1ccc(-c2c3c(nc4sc(C(=O)Nc5ccc(Cl)cc5)c(N)c24)CC(C)(C)CC3=O)cc1`, the “activation” value was inactive: -13.4%.

Take `Cc1ccc(CN(C(=O)COc2ccc(C(C)(C)C)cc2)C2CCS(=O)(=O)C2)o1` (configuration not stated): the “activation” value was inactive: -12.7%.

As for `COCCCNC(=O)Nc1cc(C(=O)NCc2ccc(OC)cc2)ccc1N1CCCC1`, the “activation” value is inactive: -14.4%.

Turning to `CCc1ccccc1NC(=O)C(NS(=O)(=O)c1ccc2c(c1)CCC(=O)N2)c1ccccc1` (configuration not stated), the “activation” value was inactive: -14.3%.

Regarding `CCCCN(C)C(=O)CN1C(=O)CCn2nc(-c3cn(C)c4ccccc34)cc21`, the “activation” value was inactive: -4.06%.

As to `COc1cccc(CCNC(=O)c2c(O)nc3cc(C)ccn3c2=O)c1`, the “activation” value is inactive: -9.58%.

With `COc1ccc(-c2nc(CCNC(=O)c3cccs3)cs2)cc1OC`, the “activation” value was inactive: -16.3%.

With `O=C(O)Cn1nc(N2CCN(c3ccc(F)cc3)CC2)ccc1=O`, the “activation” value was inactive: -13%.

Take `O=c1cc(-c2ccccc2)n2c(SCc3ccc([N+](=O)[O-])cc3)nnc2[nH]1`: the “activation” value was inactive: -12%.

Take `COC(=O)c1ccccc1NC(=O)c1ccc2c(c1)CCN2S(=O)(=O)c1ccc(C)cc1`: the “activation” value is inactive: -9.73%.

`CC1=C(C(N)=O)C(c2cccc(F)c2)n2nc(SCc3ccccc3)nc2N1` (configuration not stated): the “activation” value was inactive: -11.3%.

As to `COc1ccc2cc(CNc3ccc(C)cc3)c(=O)n(CC(=O)Nc3ccc(OC)c(Cl)c3)c2c1`, the “activation” value was inactive: -1.43%.

Regarding `CCCCc1ccc(C(=O)Nc2ccc3nc(N(CC)CC)cc(C)c3c2)cc1`, the “activation” value is inactive: -4.28%.

On to `O=C(CCCn1c(=O)c2sccc2n(Cc2ccc(F)cc2Cl)c1=O)NCc1ccc2c(c1)OCO2`, for which the “activation” value is inactive: -10.7%.

Take `COc1ccccc1CNC(=O)c1cc(Sc2cccc(Cl)c2)nc2ccccc12`: the “activation” value was inactive: -16.3%.

As for `COc1cc(OC)c(NC(=O)C2=C(C)C(=O)OC23CCCCC3)cc1Cl`, the “activation” value is inactive: -6.45%.

On to `CCc1ccc(C(=O)c2cnc3ccc(C)cc3c2S(=O)(=O)c2ccc(OC)cc2)cc1`, for which the “activation” value is inactive: -13.9%.

Regarding `O=C(CCc1nc2cccnc2n1Cc1ccccc1)NCc1cccc(Cl)c1`, the “activation” value was inactive: -3.44%.

Turning to `Cc1ccccc1Nc1ncnc2c1c(-c1ccccc1)cn2-c1ccc(F)cc1`, the “activation” value is inactive: -4.12%.

For the compound `O=C(Nc1cccc(Cl)c1)c1ccc2nc(Cc3ccccc3)oc2c1`, the “activation” value was inactive: -26.2%.

`OCc1cnc(SCc2cccc(F)c2)n1Cc1ccc(F)cc1`: the “activation” value was inactive: -10.5%.

Take `NC(=Nc1ccccc1)Nc1ccccc1`: the Potency result was “inactive”.

Regarding `Cc1c(C(=O)N2CCCC2)oc2c1-c1nn(CC(=O)NCc3cccc(F)c3)cc1CC2`, the “activation” value is inactive: 5.71%.

For the compound `Cc1ccc2c(c1)N(C(=O)N1CCC(C(=O)NCCC3=CCCCC3)CC1)CC(C)O2` (configuration not stated), the “activation” value is inactive: -16.6%.

Turning to `COC(=O)NNC(=O)C1CCC(C)CC1` (configuration not stated), the “activation” value is inactive: -3.51%.

With `CN1c2ccc(Cl)cc2-c2nc(SCC(=O)Nc3cc(F)ccc3F)ncc2S1(=O)=O`, the “activation” value was inactive: -12%.

On to `Cc1cccc(N2C(=O)CS(=O)(=O)C23C(=O)N(C)c2ccccc23)c1` (configuration not stated), for which the “activation” value is inactive: -21.4%.

`CCCCn1c(CNC(=O)C23CC4CC(CC(C4)C2)C3)nnc1SCC(=O)Nc1ccccc1`: the “activation” value was inactive: -37.6%.

With `CCN(CC)CCCNC(=O)CCc1c(C)n(CC)c2cc(-c3ccccc3OC)nn2c1=O`, the “activation” value was inactive: -11.7%.

Regarding `Cc1ncc(COC(=O)C(C)C)c2cc(C(=O)Nc3ccccc3C(F)(F)F)c(=O)oc12`, the “activation” value was inactive: -9.74%.

Regarding `CCOc1ccc(CCNc2ncnc3onc(-c4ccc(F)cc4)c23)cc1OCC`, the “activation” value is inactive: -18.9%.

As for `CCOC(=O)COc1ccc([N+](=O)[O-])cc1-c1ccnc2cc(-c3ccc(C)cc3)nn12`, the “activation” value was inactive: -11.1%.

With `Cc1ccc(C)c(N2CCN(CCCNC(=O)c3ccc4nc(N5CCCCC5)sc4c3)CC2)c1`, the “activation” value is inactive: -11.8%.

On to `Cc1ccc(-c2nnc(Nc3ccccc3)c3ccccc23)cc1S(=O)(=O)NCc1nc2ccccc2[nH]1`, for which the “activation” value was inactive: -23%.

As to `COc1ccc(C(=O)N(c2ccc(OC)cc2)S(=O)(=O)c2ccc3c(c2)n(C)c(=O)n3C)cc1`, the “activation” value is inactive: -18%.

`Cc1cccc(C)c1NS(=O)(=O)c1ccc(NS(=O)(=O)c2ccc3c(c2)OCCO3)cc1`: the “activation” value was inactive: -6.95%.

With `COc1ccc(CNC(=O)c2cc(=O)c3cc(C)ccc3o2)cc1`, the “activation” value is inactive: -9.38%.

As to `C=Cc1ccc(COc2ccc3oc(-c4ccccc4)c(C(=O)OCC)c3c2)cc1`, the “activation” value was inactive: -21.4%.

On to `O=C(Nc1noc2ccccc12)c1ccc(F)cc1`, for which the “activation” value was inactive: -18.1%.
